Paper PMC12136788
The other results are listed elsewhere or left out.

B1: chr10:61154552:61154553:+_ENSMUSG00000020088_ENSMUST00000020285|mus_mus|FALSE|FALSE (ssRNA)
RNA: GGGAGUUCUACAGUCCGACGAUCCAGAGCCCAAUGCGCUAUCUGUUCAUAAUUUUAUGAAGUAUGUAAAUUUCAUUUACUAGUUAAAAAAAAAGAAUAGAAAAUCUGGACCAAGUAAAUUGUGAACUGAAAAAGUUAGAGAAGCAACAGAGGAUUGAGCAUCA
B2: chr9:95013113:95013114:-_ENSG00000196305_ENST00000443024|hu_hu|hu_hu_hu_mus_False|8_58 (ssRNA)
RNA: GGGAGUUCUACAGUCCGACGAUCCUCAGUCAGAAAGGGCGUGUAAGGGGCCAUCAGUCUGCACAGAGAAAGCAGGACACUAAACAAUGUCUCCAGAGCCAUGACACAGUCUUCCACCCCACUCUCACCCUUUAAUCUCCUCCUCAACAGAGGAUUGAGCAUCA
B3: chr1:165664616:165664617:-_ENSG00000143149_ENST00000354775|hu_hu|FALSE|FALSE (ssRNA)
RNA: GGGAGUUCUACAGUCCGACGAUCCUUUGCAUUUUGAACAGCCAAAUUUACUUCCUUUUCUCCUGAACAUGUGAAAGUAGCUAUCACUCGGCCGGUUGCUGGCUCGAAAGCUUUCUCGGUACCGGAGGCGUCCGCCGGCUCCACCAACAGAGGAUUGAGCAUCA
B4: chr6:99849430:99849431:-_ENSG00000132424_ENST00000438806|hu_mus|FALSE|FALSE (ssRNA)
RNA: GGGAGUUCUACAGUCCGACGAUCUCUUUUCUUGUCAUUGACCGCAUCACGGUCGGCUUCACUUGCUUCUAGAAGUGAUAAACUAUUUUGCUCUCUGUGAAUAAAUUCAUUCAUCUCUUUUGUAACCCUUUCUGUUUGCUGCUUCAACAGAGGAUUGAGCAUCA
B5: chr1:201104638:201104639:-_ENSG00000116857_ENST00000367334|hu_mus|FALSE|FALSE (ssRNA)
RNA: GGGAGUUCUACAGUCCGACGAUCCAGAGACCUACAGAGACCCAAUCACACUCCCUCGUUAUAACAGUCGAGUACAUUUCUAGAGAGGGAGAAGGAUAAACGCCAUGGGCAUUUGAAGGGAAGACCCAGGGAAGACUGCAGUGACAACAGAGGAUUGAGCAUCA
B6: 147080382_147080502_6135_CDS_ENSMUSG00000025272_ENSMUST00000087258|mouse|control|control (ssRNA)
RNA: GGGAGUUCUACAGUCCGACGAUCACUACCAAAGCCAGCUGCAGUGCUUGGUCCUCCGAAGCCACCUCCAGUGCUUGGUCCUCCGAAGCCACCUCCAGUGCUUGGUCCUCCAAAGCCACCUCCAGUGCUUGGUCCUCCAAAGCCCAACAGAGGAUUGAGCAUCA
B7: chr3:176768308:176768309:-_ENSG00000177565_ENST00000430069|hu_mus|FALSE|FALSE (ssRNA)
RNA: GGGAGUUCUACAGUCCGACGAUCACUGAGGUUCCAGAUUCUUGCCGUGGAGUCUCCAGACCCUGAUGCCAGGAGAUCACUAACAGGGUUCCAGGCACAGAUGAAAACUUCAGAUUCAUGGCCCCGAAGCACAACCGCUUUAUUCAACAGAGGAUUGAGCAUCA
B8: 90432816_90432936_438_3pUTR_ENSMUSG00000053414_ENSMUST00000065856|mouse|control|control (ssRNA)
RNA: GGGAGUUCUACAGUCCGACGAUCUGCCACCAGGACACAGCUCCAUGACCAGGUAGUAGCUGUUCUCUGUCUCCAAGAUGUCCAGGAGCUGUGUGAUGUUGGGGUGUCGGAUCAUCUGCUGGAUCUGCCCCUCUCGACGCAGGUCAACAGAGGAUUGAGCAUCA
B9: 151567571_151572471_2246_3pUTR_ENSMUSG00000034021_ENSMUST00000016569|mouse|control|control (ssRNA)
RNA: GGGAGUUCUACAGUCCGACGAUCAUUUGUAGUGCAGCUUCUGCCACCUUCUCAUCAUCCAUCUUCAGACAAGCCAGAAGGGACUCAAACGUCUCAGCAGAGUGAAAGGAGAUAGGGUGCGUAAAAGACAGCACCUUCAGCAGCCAACAGAGGAUUGAGCAUCA
B10: chr1:225611761:225611762:-_ENSG00000143815_ENST00000272163|hu_mus|hu_hu_hu_mus_True|38_58 (ssRNA)
RNA: GGGAGUUCUACAGUCCGACGAUCCCAGGCCAUCGGCCUCUGACCACUUCACCCUCAACAAACUUCCUACUUGGCAUUUUCUAUAAUUAGUCUGGCCCAGGUUCCGGGGGAACUCCAGCCACUCCAGGACAGUCACCAGCAGCCCAACAGAGGAUUGAGCAUCA
B11: chr11:12883819:12883820:+_ENSG00000187079_ENST00000361905|hu_mus|motif|central (ssRNA)
RNA: GGGAGUUCUACAGUCCGACGAUCAAUGUGACUAGACACCUGCUUCCUGGUCCUUGUCUUUCCCGUCCUGAGUUUGAUGUAUCUGGCGGUCAAUUCAUUUCUACCAUACAUUUUGCCUUCGUCUGAUAAGAUGAUUUUUCUCCUCAACAGAGGAUUGAGCAUCA
B12: 145887673_145887793_1067_CDS_ENSMUSG00000029622_ENSMUST00000085679|mouse|control|control (ssRNA)
RNA: GGGAGUUCUACAGUCCGACGAUCGUUCUUGUGCAGUGAAUCCAGGCCGGCCCCAGUGGCUGCACCCCCCUCAGAGCUGGCCUUCUUGUCCAGGUUCUGGAAGCGCUCUCGGGCUGUCAUGCCACGCUGGGAGCUCUGCUUGGGCAACAGAGGAUUGAGCAUCA
B13: chr2:217001844:217001845:+_ENSG00000079246_ENST00000392132|hu_hu|hu_hu_hu_mus_False|78_108 (ssRNA)
RNA: GGGAGUUCUACAGUCCGACGAUCACCGACUUGAGGAUUAGAUCUUUUGUCAUAAGCAUAUCGAACUAUGGCGACCAUGUUUAACUCAUCCAAAGCAUGAACGAGAGAGGAAAGGGCAACAGCUGCCGCCUCAUCAUCCUUUGCCAACAGAGGAUUGAGCAUCA
B14: chr19:47151266:47151267:-_ENSG00000197380_ENST00000391916|hu_hu|FALSE|FALSE (ssRNA)
RNA: GGGAGUUCUACAGUCCGACGAUCCUGCAGGGACCACCUGAGUCAGACACAGAGUCUCUGACCAGGGUGCCAAGGGGAUAUCUUAAGGGUCCAGGGACAUGGAGGGGGCACUUUGUGAAUGAGAGGGGGCCAUAGCUGGGCAAGCAACAGAGGAUUGAGCAUCA
B15: chrX:148277548:148277549:+_ENSMUSG00000025261_ENSMUST00000112622|mus_mus|motif|central (ssRNA)
RNA: GGGAGUUCUACAGUCCGACGAUCAAGGACUGCCAGCACCACUUGCAUAUCAGAGGAAGCCAAUAAAGUUGUCAAAUGCUCGGUGGAACUGUACAGAUGCCGAGAAAAGCUGUACUCAAUGAGCAAGGCUGUGAAGUUCAAUACCAACAGAGGAUUGAGCAUCA
B16: chr14:76904430:76904431:+_ENSMUSG00000022010_ENSMUST00000022587|mus_mus|mus_mus_mus_hu_True|28_58 (ssRNA)
RNA: GGGAGUUCUACAGUCCGACGAUCUGCAGCCAAAAACACCCUCGUGGAAAAAAAGAGGGAACACCAGCAGCCUUGUACAAACUAGAUAAAAUCUUCUGGCUUUCCGCAGCUCAGGGCGAAACAGAAAACGGCAGCCCUAAUUUACAACAGAGGAUUGAGCAUCA
B17: chr1:154686295:154686296:-_ENSMUSG00000042772_ENSMUST00000043560|mus_mus|FALSE|FALSE (ssRNA)
RNA: GGGAGUUCUACAGUCCGACGAUCACAUUUCGUGCACACUCAGCGGGCUGGUGGAACACUUACACCCUCUCGACAGCAAGAAACAGACAAGAGAGCUGCCACCUGCAGAGACUGUGUGGGUCAGUCCUGCAAACCCAACAUGCCCAACAGAGGAUUGAGCAUCA
B18: chr6:170627217:170627218:+_ENSG00000112584_ENST00000537664|hu_mus|FALSE|FALSE (ssRNA)
RNA: GGGAGUUCUACAGUCCGACGAUCAUUUCCUUUUUUGCCAGCAUUCUCUUUCACAGAAGCAUAGGAUGACAAGCACUUGUACCGAAAGCUUUCAAACAUGCUCUCUGGAGUGAUGUCAUUGCCAAGCAGACAGGCCAGAAGAGGCAACAGAGGAUUGAGCAUCA
B19: 32355961_32364089_3172_CDS_ENSG00000056097_ENST00000265069|human|control|control (ssRNA)
RNA: GGGAGUUCUACAGUCCGACGAUCGUUAAAACGUUGGCUCAUUUGCGGUAAUGGAUCCAUGCCUAGAACUUUGUGUAUCUGGCGGAAUGCAAGGAGUCUCAAUGCAAACUGUGCACUGGAUGUGAUGUCUUCACGCUGCUGGUCCAACAGAGGAUUGAGCAUCA
B20: chr3:170585912:170585913:-_ENSG00000163584_ENST00000463836|hu_mus|FALSE|FALSE (ssRNA)
RNA: GGGAGUUCUACAGUCCGACGAUCGUGAACAACAUUGCCAAGAUUUCCAGUUUUUCCAUUGACUUUAACCUUCUCCCGUAGAAACUGUUCAAAAUUUCCAGAGUCAAAAAUUCCAUCUUCUACUGGAUGAGUAAGGUCCAAAUGCAACAGAGGAUUGAGCAUCA
B21: chr7:141438946:141438947:+_ENSG00000106028_ENST00000265304|hu_mus|hu_hu_hu_mus_True|18_108 (ssRNA)
RNA: GGGAGUUCUACAGUCCGACGAUCGACUACCUGUAAUUAACACAGGUCUUCGAAACAUGGCUUCUGUUUUUCUUACAACCUAAUCUUUAGGCUUUUCCUAAAGGAAAGAAAGAAAAGGCCCAGCCACUAAAUCAAGAAACUACACAACAGAGGAUUGAGCAUCA
B22: chr3:19126987:19126988:-_ENSMUSG00000069094_ENSMUST00000091314|mus_hu|motif|central (ssRNA)
RNA: GGGAGUUCUACAGUCCGACGAUCUAAAAAAAAUUGCAUUGCCAAACGGCACUGGAGUGAAAGCUUGGCGGUACUCGGCGAUAAAUGCUCAGUUUCCAGUGCAUGAAAUAAAACUAUAGCAAAUGGGAGGCUUUGGUGGCAUCCCAACAGAGGAUUGAGCAUCA

Molecular target: T1, UNK ZnF1-3 (human, UniProt Q9C0B0 31-174)
T1 sequence: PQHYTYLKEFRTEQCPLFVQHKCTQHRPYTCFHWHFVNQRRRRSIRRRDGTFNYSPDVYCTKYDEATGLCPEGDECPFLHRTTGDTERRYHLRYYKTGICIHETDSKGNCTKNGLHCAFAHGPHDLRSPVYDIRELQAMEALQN
Assay: nsRBNS (natural sequence RNA bind-n-seq); RBNS binding buffer (assumed for nsRBNS): 25 mM Tris pH 7.5, 150 mM KCl, 3 mM MgCl2, 0.01% Triton X-100, 500 ug/ml BSA, 20 U/ml SUPERase-In, 4 C; UNK is unkempt and MSI1 is Musashi-1; names of the RNAs are library labels; protein concentration not given here; high values mean tight binding

| Binder | binding signal [enrichment R] |
| --- | --- |
| B1 | 1.7 |
| B2 | 1.43 |
| B3 | 0.853 |
| B4 | 0.452 |
| B5 | 1.54 |
| B6 | 1.13 |
| B7 | 1.16 |
| B8 | 0.458 |
| B9 | 1.02 |
| B10 | 1.45 |
| B11 | 0.401 |
| B12 | 0.815 |
| B13 | 1.8 |
| B14 | 1.54 |
| B15 | 1.79 |
| B16 | 1.67 |
| B17 | 0.881 |
| B18 | 0.956 |
| B19 | 0.879 |
| B20 | 0.723 |
| B21 | 0.545 |
| B22 | 1.13 |
